Source: PubChem BioAssay (Tox21)
“And” between values parts separate entries of the source, which are not always exact repeats. Equal values may be shown once. Inconclusive results, whose numbers are uncertain, are shown with a selection of clear calls. For some assays here: A potency beside an inconclusive call is a rough fit, not a confirmed value. The source made the active and inactive calls. Unless noted, the call rests on the fitted dose curve; in most records, active means well fitted curve in the direction sought with a large enough effect in the repeat runs; inconclusive means weak or mixed curves; inactive means no such curve, though single readings can be large; an effect the other way counts as inactive or inconclusive.

Experiments:
[1] = biological target: Aryl hydrocarbon receptor (Homo sapiens) (UniProt P35869); test: qHTS assay to identify small molecule that activate the aryl hydrocarbon receptor (AhR) signaling pathway (AID 743085); further: nearly all actives have a fitted effect of over 15% in size; further: potency means the concentration at half of the fitted maximal effect;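 on activation: HG2L7.5c1 human HepG2 liver cells with stably integrated DRE-driven firefly reporter; on the % scale 0 is the no-effect control and ±100 the full control effect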
How it was run: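 HepG2 cells stably carrying a 20-DRE firefly luciferase reporter (HG2L7.5c1) treated with compound for 24 hr at 37C. Luciferase read by ONE-Glo luminescence, with CellTiter-Fluor viability read first.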

[2] = A CellTox Green Cytotoxicity Assay to monitor cytotoxicity in HepG2 cells - 8 hour (AID 1224890); further: nearly all actives have a fitted effect of over 45% in size; further: potency means the concentration at half of the fitted maximal effect
How it was run: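 Continuous culture of HepG2 cells with a membrane-impermeant DNA dye; rising fluorescence marks dead cells. Compound exposure lasted up to 40 h at 37 C, with reads every 8 h from 0 h.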

[3] = qHTS RealTime-Glo MT Cell Viability Assay in HepG2 cells - 16 hour (AID 1224885); further: nearly all actives have a fitted effect of over 50% in size; further: potency means the concentration at half of the fitted maximal effect
How it was run: (§1)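 Real-time, nonlytic viability: 600 HepG2 cells/well mixed with NanoLuc enzyme plus prosubstrate; 5 h settle, compound (DMSO) added by pintool; luminescence monitored over 40 h at 37 C.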

[4] = qHTS assay to identify small molecule antagonists of the androgen receptor (AR) signaling pathway using the MDA cell line in the presence of 0.5 nM R1881 - cell viability counter screen (AID 1259242); further: nearly all actives have a fitted effect of over 45% in size; further: potency means the concentration at half of the fitted maximal effect
How it was run: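 Fluorescence from CellTiter-Fluor, which reports protease activity of live cells, was read 30 min after reagent addition to MDA-kb2 cells that had been incubated 16 hr with compound and 0.5 nM R1881.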

[5] = qHTS assay to identify small molecule antagonists of the TGF-beta/Smad signaling pathway - cell viability counter screen (AID 1346824); further: nearly all actives have a fitted effect of over 50% in size; further: potency means the concentration at half of the fitted maximal effect
How it was run: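 SBE-bla HEK 293T cells, incubated overnight, then compound plus 0.25 ng/mL TGF-beta1 (stock added) for 5 hr at 37 C. Viability was read in the same wells by CellTiter-Glo luminescence after 30 min at room temperature.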

[6] = qHTS assay to identify small molecule agonists of the androgen receptor (AR) signaling pathway in the presence of an antagonist - cell viability counter screen (AID 1259379); further: nearly all actives have a fitted effect of over 25% in size; further: potency means the concentration at half of the fitted maximal effect
How it was run: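 In MDA-kb2 cells (human breast carcinoma, MMTV-luciferase), compounds at 15 concentrations plus 3.0uM nilutamide; 16 hr, 37C, 0% CO2; CellTiter-Fluor fluorescence read for viability.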

[7] = Caspase-3/7 induction in CHO-K1 cells by small molecules, qHTS assay (AID 1346980); further: nearly all actives have a fitted effect of over 15% in size; further: potency means the concentration at half of the fitted maximal effect
How it was run: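 Wild-type CHO-K1 cells exposed to compounds for 17hr at 37 C, 5% CO2. Caspase-3/7 activity then measured by Caspase-Glo 3/7 luminescence after 30min at room temperature.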

[8] = qHTS assay for small molecules that induce genotoxicity in human embryonic kidney cells expressing luciferase-tagged ATAD5 - cell viability (AID 651634; calls by dose curve; further: potency means the concentration at half of the fitted maximal effect; nearly all actives have a fitted effect of over 25% in size)
How it was run: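 Live-cell protease activity (CellTiter-Fluor, fluorescence) indicates viability. HEK293T cells with luciferase-tagged ATAD5; 15.5 hr compound treatment at 37C.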

[9] = qHTS RealTime-Glo MT Cell Viability Assay in HepG2 cells - 24 hour (AID 1224867); further: on the % scale 0 is the no-effect control and ±100 the full control effect; nearly all actives have a fitted effect of over 50% in size
How it was run: as §1

[10] = qHTS RealTime-Glo MT Cell Viability Assay in HepG2 cells - 40 hour (AID 1224870); further: nearly all actives have a fitted effect of over 50% in size; further: potency means the concentration at half of the fitted maximal effect
How it was run: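 HepG2 cells (600/well) mixed with RealTime-Glo MT reagent, settled 5 h at 37 C/5% CO2 before compound addition. Nonlytic NanoLuc luminescence from viable-cell prosubstrate reduction read repeatedly during 40 h treatment at 37 C.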

[11] = biological target: Glucocorticoid receptor (Homo sapiens) (UniProt P04150); test: qHTS assay to identify small molecule agonists of the glucocorticoid receptor (GR) signaling pathway (AID 720691; active means well fitted activation curve with a large enough effect in the signal ratio in the repeat runs, not every such curve was filed as active; inconclusive means weak or mixed curves, or effect the other way; inactive means no such curve, though single readings can be large or run the other way; the % refers to the signal ratio; further: potency means the concentration at half of the fitted maximal effect; on activation: on the % scale 0 is the no-effect control and ±100 the full control effect); details: GR-bla HeLa, beta-lactamase reporter ratio, 18 h; activation: at 62.4 µM (top of the series) unless noted
How it was run: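 Beta-lactamase reporter activity, read as fluorescence intensity, was measured in GR-bla HeLa cells exposed to compounds for 18 h at 37 C and then loaded with LiveBLAzer B/G FRET substrate for 2 h at room temperature.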

[12] = system: thyroid hormone receptor (rat, GH3 cells); test: qHTS assay to identify small molecule agonists of the thyroid receptor (TR) signaling pathway (AID 743066; calls by dose curve; further: on the % scale 0 is the no-effect control and ±100 the full control effect); details: GH3.TRE-Luc cells, TR agonist luciferase, 24 h; activation: at 83.9 µM (top of the series) unless noted
[13] = qHTS assay for small molecule agonists of the p53 signaling pathway - cell viability (AID 651633; calls by dose curve; further: nearly all actives have a fitted effect of over 30% in size; further: potency means the concentration at half of the fitted maximal effect)
How it was run: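 p53RE-bla cells were treated with compound for 16 hours at 37 C. Cytotoxicity was then measured as CellTiter-Glo luminescence after 30 min at room temperature.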

[14] = biological target: Vitamin D3 receptor (Homo sapiens) (UniProt P11473); test: qHTS assay to identify small molecule agonists of the vitamin D receptor (VDR) signaling pathway (AID 743222; calls by dose curve; further: potency means the concentration at half of the fitted maximal effect; on activation: on the % scale 0 is the no-effect control and ±100 the full control effect); details: HEK293T VDR-UAS-bla, beta-lactamase FRET ratio, 16 h; activation: at 63.5 µM (top of the series) unless noted
How it was run: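 Agonist activity measured in VDR-bla reporter cells. Exposure 16 h, 37C, 5% CO2; detection by B/G FRET substrate, 2 h RT.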

[15] = A CellTox Green Cytotoxicity Assay to monitor cytotoxicity in HEK293 cells - 8 hour (AID 1224884); further: potency means the concentration at half of the fitted maximal effect; nearly all actives have a fitted effect of over 35% in size
How it was run: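 Each value comes from one timepoint of a single continuous run in which HEK293 cells with CellTox Green were exposed to compound for up to 40 h at 37 C, dye fluorescence rising with cell death.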

[16] = qHTS assay to identify small molecule HDAC inhibitors (AID 1259364); further: nearly all actives have a fitted effect of over 45% in size; further: potency means the concentration at half of the fitted maximal effect
How it was run: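 Endogenous HDAC class I/II activity was measured in wild-type HCT-116 cells by HDAC-Glo luminescence after 2 h compound treatment.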

[17] = biological target: Acetylcholinesterase (Homo sapiens) (UniProt P22303); test: Acetylcholinesterase (AChE) small molecule antagonists: colormetric cell-based qHTS assay (AID 1347395; calls by dose curve; further: potency means the concentration at half of the fitted maximal effect; nearly all actives have a fitted effect of over 30% in size)
How it was run: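 SH-SY5Y cells attached overnight, exposed to compound 30 min at 37 C, then given DTNB/acetylthiocholine; after 90 min at 37 C, colorimetric thiocholine read gives cellular AChE activity.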

[18] = qHTS assay to identify small molecule agonists of the hypoxia (HIF-1) signaling pathway - cell viability counter screen (AID 1224844; calls by dose curve; further: nearly all actives have a fitted effect of over 50% in size; further: potency means the concentration at half of the fitted maximal effect)
How it was run: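 Luminescent ATP content (CellTiter-Glo, 30 min, room temperature) served as the viability measure in HRE-bla ME-180 cells exposed to compounds for 17 hrs in low-serum medium (0.5% dialyzed FBS).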

[19] = qHTS assay to identify small molecule agonists or antagonists of the thyroid stimulating hormone receptor (TSHR) signaling pathway - wild type cell line counter screen (AID 1259384; calls by dose curve; further: potency means the concentration at half of the fitted maximal effect); details: HEK293 wild type, cAMP HTRF counter-screen
How it was run: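 Wild-type Hek293 cells, 800/well, 18 h at 37C, then compound with Ro20-1724 for 30 min RT. cAMP by HTRF (cAMP-d2/anti-cAMP cryptate), 1 h RT, fluorescence read. 15 concentrations, triplicates.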

[20] = Caspase-3/7 induction in HepG2 cells by small molecules, qHTS assay (AID 1346978); further: potency means the concentration at half of the fitted maximal effect; nearly all actives have a fitted effect of over 15% in size
How it was run: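 Wild-type HepG2 cells, 2,000/well, settled 5 hr at 37 C and 5% CO2, then compound-treated for 17 hr; caspase-3/7 activity read by luminescent Caspase-Glo 3/7 after 30 min at room temperature.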
Tags describe the fitted curve by direction and shape or compound fluorescence and quenching.

Sequence of UniProt P35869 (P35869 whole entry, looked up): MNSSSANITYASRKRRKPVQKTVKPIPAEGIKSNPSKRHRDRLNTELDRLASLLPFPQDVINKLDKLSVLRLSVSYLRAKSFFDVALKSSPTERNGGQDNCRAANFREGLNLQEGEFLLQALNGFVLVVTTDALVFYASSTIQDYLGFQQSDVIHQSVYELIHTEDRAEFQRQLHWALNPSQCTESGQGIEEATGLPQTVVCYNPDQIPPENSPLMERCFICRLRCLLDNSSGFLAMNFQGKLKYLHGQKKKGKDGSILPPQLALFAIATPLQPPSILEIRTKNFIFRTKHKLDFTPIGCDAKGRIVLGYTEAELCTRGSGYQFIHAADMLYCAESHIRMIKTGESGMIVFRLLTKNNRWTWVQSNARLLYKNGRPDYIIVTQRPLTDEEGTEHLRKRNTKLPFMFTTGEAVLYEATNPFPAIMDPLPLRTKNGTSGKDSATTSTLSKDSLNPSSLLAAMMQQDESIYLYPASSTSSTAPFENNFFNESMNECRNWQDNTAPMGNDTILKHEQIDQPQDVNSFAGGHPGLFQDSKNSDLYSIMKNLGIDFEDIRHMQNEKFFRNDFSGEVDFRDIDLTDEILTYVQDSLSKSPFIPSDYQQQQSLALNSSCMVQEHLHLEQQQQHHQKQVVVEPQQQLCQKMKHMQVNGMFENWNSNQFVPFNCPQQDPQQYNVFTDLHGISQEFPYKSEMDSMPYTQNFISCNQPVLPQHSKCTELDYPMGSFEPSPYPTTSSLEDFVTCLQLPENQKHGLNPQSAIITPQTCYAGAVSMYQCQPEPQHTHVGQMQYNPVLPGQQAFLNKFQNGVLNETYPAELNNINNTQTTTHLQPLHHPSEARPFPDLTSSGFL
Sequence of UniProt P22303 (P22303 whole entry, looked up): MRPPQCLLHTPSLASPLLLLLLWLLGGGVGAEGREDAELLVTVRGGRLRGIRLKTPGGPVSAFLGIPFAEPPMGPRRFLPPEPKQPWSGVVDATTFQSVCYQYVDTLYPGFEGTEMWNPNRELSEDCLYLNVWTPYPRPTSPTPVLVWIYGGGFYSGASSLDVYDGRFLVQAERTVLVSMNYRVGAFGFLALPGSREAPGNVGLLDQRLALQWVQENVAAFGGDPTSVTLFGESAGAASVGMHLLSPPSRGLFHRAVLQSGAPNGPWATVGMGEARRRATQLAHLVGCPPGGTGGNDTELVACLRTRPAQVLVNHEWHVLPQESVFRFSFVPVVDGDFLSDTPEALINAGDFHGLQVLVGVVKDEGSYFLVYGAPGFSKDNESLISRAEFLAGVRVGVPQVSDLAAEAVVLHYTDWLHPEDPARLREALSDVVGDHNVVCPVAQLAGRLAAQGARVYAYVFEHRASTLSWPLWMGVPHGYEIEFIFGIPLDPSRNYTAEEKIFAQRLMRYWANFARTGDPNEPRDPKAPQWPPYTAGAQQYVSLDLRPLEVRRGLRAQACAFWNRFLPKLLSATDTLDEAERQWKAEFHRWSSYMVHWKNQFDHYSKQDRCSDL
Sequence of UniProt P11473 (P11473 whole entry, looked up): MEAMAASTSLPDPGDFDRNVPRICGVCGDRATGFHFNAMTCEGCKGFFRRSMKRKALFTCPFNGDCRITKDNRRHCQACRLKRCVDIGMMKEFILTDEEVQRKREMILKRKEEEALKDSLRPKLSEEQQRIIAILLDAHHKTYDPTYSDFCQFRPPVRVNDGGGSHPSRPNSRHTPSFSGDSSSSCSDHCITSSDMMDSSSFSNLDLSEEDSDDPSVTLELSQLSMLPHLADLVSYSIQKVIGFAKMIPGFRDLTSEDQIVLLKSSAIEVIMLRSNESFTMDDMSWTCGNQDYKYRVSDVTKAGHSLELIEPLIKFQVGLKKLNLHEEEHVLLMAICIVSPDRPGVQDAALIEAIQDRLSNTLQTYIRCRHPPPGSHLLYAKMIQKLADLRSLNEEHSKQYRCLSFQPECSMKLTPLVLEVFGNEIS
Sequence of UniProt P04150 (P04150 whole entry, looked up): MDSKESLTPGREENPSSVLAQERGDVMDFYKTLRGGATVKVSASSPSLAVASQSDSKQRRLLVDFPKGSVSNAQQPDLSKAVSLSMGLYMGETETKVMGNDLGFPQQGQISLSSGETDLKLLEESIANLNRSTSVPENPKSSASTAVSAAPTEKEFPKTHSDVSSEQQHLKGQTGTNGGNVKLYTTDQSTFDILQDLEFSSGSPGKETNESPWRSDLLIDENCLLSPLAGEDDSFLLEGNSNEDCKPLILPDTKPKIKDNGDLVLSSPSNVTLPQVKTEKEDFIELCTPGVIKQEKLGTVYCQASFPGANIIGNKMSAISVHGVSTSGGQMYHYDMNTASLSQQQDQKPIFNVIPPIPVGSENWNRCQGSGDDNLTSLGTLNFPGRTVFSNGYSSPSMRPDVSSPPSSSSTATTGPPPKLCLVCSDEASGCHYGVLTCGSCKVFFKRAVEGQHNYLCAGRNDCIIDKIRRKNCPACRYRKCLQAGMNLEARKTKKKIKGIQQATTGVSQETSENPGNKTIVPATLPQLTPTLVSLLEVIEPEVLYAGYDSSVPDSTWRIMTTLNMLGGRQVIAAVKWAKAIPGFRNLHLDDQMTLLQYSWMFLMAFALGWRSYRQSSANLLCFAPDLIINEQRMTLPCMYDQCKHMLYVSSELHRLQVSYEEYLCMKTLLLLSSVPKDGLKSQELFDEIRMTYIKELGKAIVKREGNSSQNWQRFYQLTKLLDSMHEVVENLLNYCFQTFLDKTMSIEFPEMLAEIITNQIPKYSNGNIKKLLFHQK

Structure (SMILES): Cc1ccc(O)c(C)c1
- Potency [1]: inactive
- Potency [2]: inactive

Structure (SMILES): N#Cc1c(-c2ccc(Cl)cc2)[nH]c(C(F)(F)F)c1Br
- Potency [3]: inconclusive: 0.195 µM [cytotoxic, single point]
- Potency [4]: inconclusive: 0.969 µM [cytotoxic, full curve]
- Potency [5]: inconclusive: 1.74 µM [cytotoxic, full curve]

Structure (SMILES): CSc1nc(N=[N+]=[N-])nc(NC(C)C)n1
- Potency [6]: inactive
- Potency [7]: inactive

Structure (SMILES): Nc1cc(Cl)ccc1O
- Potency [8]: active: 23.5 µM
- Potency [9]: inactive

Structure (SMILES): CN(C)CCc1ccc(O)cc1
- Potency [4]: inactive

Structure (SMILES): CC(O)C#N (centres undefined)
- Potency [10]: inconclusive: 61.6 µM [rising, partial curve, poor fit]

Structure (SMILES): ClCCOCOCCCl
- Potency [11]: inactive
- Potency [12]: inactive

Structure (SMILES): Cc1c(F)c(F)c(COC(=O)C2C(/C=C(\Cl)C(F)(F)F)C2(C)C)c(F)c1F (centres undefined)
- Potency [13]: inconclusive: 27.3 µM [cytotoxic, partial curve, poor fit]
- Potency [5]: inconclusive: 30.9 µM [cytotoxic, partial curve, poor fit]

Structure (SMILES): CC(C)CCON=O
- Potency [10]: inactive

Structure (SMILES): CCOP(=S)(OCC)SCSP(=S)(OCC)OCC
- Potency [7]: inconclusive: 68.6 µM [activator, single point]

Structure (SMILES): CC[N+]1(C)CCCC(OC(=O)C(O)(c2ccccc2)c2ccccc2)C1 (centres undefined)
- Potency [14]: inconclusive: 33.5 µM [falling, single point]

Structure (SMILES): COc1ccc(N)cc1
- Potency [8]: inconclusive: 28.6 µM [falling, partial curve, poor fit]
- Potency [15]: inconclusive: 21.9 µM [activator, single point]

Structure (SMILES): O=C(NC(=O)c1cc(F)c(F)cc1Cl)Nc1cc(F)ccc1N1CCC(C(=O)O)CC1
- Potency [2]: inconclusive: 8.49 µM [activator, partial curve, poor fit]

Structure (SMILES): CCOP(=S)(OCC)SCSC(C)(C)C
- Potency [13]: inconclusive: 27.5 µM [cytotoxic, single point]
- Potency [16]: inactive

Structure (SMILES): N#CCc1ccc(Cl)cc1
- Potency [3]: inactive

Structure (SMILES): Cn1[nH]nnc1=S
- Potency [16]: inactive

Structure (SMILES): CCOP(=S)(Oc1cnc(C(C)(C)C)nc1)OC(C)C (centres undefined)
- Potency [17]: active: 39.9 µM

Structure (SMILES): CCCSP(=S)(OCC)Oc1ccc(Cl)cc1Cl (centres undefined)
- Potency [1]: active: 54.5 µM

Structure (SMILES): O=C1OC(CCN2CCCCC2)OC1(c1ccccc1)c1ccccc1 (centres undefined)
- Potency [18]: inactive

Structure (SMILES): BrCCCCCCBr
- Potency [12]: inactive

Structure (SMILES): CNNC
- Potency [14]: inactive

Structure (SMILES): CCCCOCCOC(C)=O
- activation [12]: inconclusive: 6.76% [phenotype inactive]
- Potency [15]: inconclusive: 54.9 µM [activator, partial curve, poor fit]
- Potency [7]: inactive
- Potency [17]: inconclusive: 77.6 µM [inhibitor, single point]

Structure (SMILES): CNC(=O)O/N=C(\C)C(C)S(C)(=O)=O (centres undefined)
- Potency [17]: active: 355 µM

Structure (SMILES): O=C(Cc1ccccc1)OCc1ccccc1
- Potency [16]: inconclusive: 54.9 µM [inhibitor]

Structure (SMILES): O=[N+]([O-])c1cc([As](=O)(O)O)ccc1O
- Potency [6]: inconclusive: 54.5 µM [cytotoxic, partial curve]

Structure (SMILES): CCCC(C)(COC(N)=O)COC(N)=O
- cAMP activity change ([19]; at 92.4 µM (top of the series), active compounds read high): inactive: -0.289%

Structure (SMILES): ClCC(Cl)CCl
- Potency [6]: inactive

Structure (SMILES): CN1C(=S)CN=C(c2ccccc2)c2cc(Cl)ccc21
- Potency [15]: inconclusive: 5.35 µM [activator, single point]

Structure (SMILES): CC(C)(C)NCC(O)c1cc(Cl)c(N)c(C(F)(F)F)c1 (centres undefined)
- Potency [3]: inactive
- Potency [19]: inconclusive: 0.003 µM [rising, full curve]
- Potency [5]: inactive

Structure (SMILES): CNC(=O)O/N=C/C(C)(C)S(C)=O (centres undefined)
- Potency [16]: inconclusive: 19.6 µM [inhibitor, partial curve]
- Potency [17]: active: 322 nM and active: 354 nM

Structure (SMILES): C=CC(=O)OCCCCCC(C)C
- Potency [13]: inactive
- Potency [12]: inactive
- Potency [18]: inactive

Structure (SMILES): CCOP(=S)(OCC)SCS(=O)(=O)C(C)(C)C
- Potency [16]: inactive

Structure (SMILES): O=c1oc2ccccc2c(O)c1C1CCCc2ccccc21 (centres undefined)
- Potency [9]: inactive

Structure (SMILES): CC(C)c1ccc(NC(=O)N(C)C)cc1
- Potency [16]: active: 24.3 µM

Structure (SMILES): O=C(O)CBr
- Potency [13]: inactive

Structure (SMILES): Oc1ccc2c3c1O[C@H]1[C@@H](O)C=C[C@H]4[C@@H](C2)NCC[C@@]341
- Potency [6]: inactive
- Potency [7]: inactive

Structure (SMILES): CCC[CH2][Sn]([Cl])([Cl])[Cl]
- Potency [18]: inconclusive: 27.5 µM [cytotoxic, partial curve, poor fit]

Structure (SMILES): CC[C@]1(O)CC[C@H]2[C@@H]3CCC4=CCCC[C@@H]4[C@H]3CC[C@@]21C
- Potency [8]: active: 10.6 µM
- Potency [11]: inconclusive: 21.3 µM [rising, partial curve, poor fit]
- activation [12]: inconclusive: -7.56% [phenotype inactive]
- Potency [20]: inconclusive: 23.7 µM [activator]
